# Data reported in the supplement of paper PMC8728848.
# This is one part of the list.
# B1: HA-11100 (Pseudomonas aeruginosa), Q02G51_PSEAB (protein)
# chain: QFNPNEIKISQQGKTTLIDQSTQRAIINWKGFDVSADEAVRFNQPGVTSSTLNRVTAGQESVIAGRISAPGQVIIYNSNGVVFSGSAKVDVGSLITTTANISDEHFRQGKLIFDQPGNPDARIVNDGSISVAEKGLAAFVAPSVANNGVINARLGTVAMAAGNAATIDLYG
# Tests used:
# Assay in all cases: glycan array binding signal (z-score within array); higher = stronger binding
# Conditions in all cases: glycan notation: IUPAC condensed, linker removed
# [1] = target: Gal3S(b1-3)[Fuc(a1-4)]GlcNAc
# How it was run: (§1)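 Glycan array binding is given as a within-array Z-score, which can be read as non-binding when negative. The arrays, 3228 of them, came from the Consortium for Functional Glycomics database and were retained only where the protein sequence was available. Z-scores were averaged across arrays of the same protein sequence at different concentrations or buffers and across linkers.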
# Gal3S(b1-4)Glc = target: Gal3S(b1-4)Glc
# How it was run: as §1
# Gal3S(b1-4)Glc6S = target: Gal3S(b1-4)Glc6S
# How it was run: as §1
# Gal3S(b1-4)GlcNAc = target: Gal3S(b1-4)GlcNAc
# How it was run: as §1
# [2] = target: Gal3S(b1-4)[Fuc(a1-3)]Glc6S
# How it was run: as §1
# [3] = target: Gal3S(b1-4)[Fuc(a1-3)]GlcNAc
# How it was run: as §1
# [4] = target: Gal3S(b1-4)[Fuc(a1-3)]GlcNAc6S
# How it was run: as §1
# Gal3S4S(b1-4)GlcNAc = target: Gal3S4S(b1-4)GlcNAc
# How it was run: as §1
# Gal3S6S(b1-4)GlcNAc = target: Gal3S6S(b1-4)GlcNAc
# How it was run: as §1
# Gal3S6S(b1-4)GlcNAc6S = target: Gal3S6S(b1-4)GlcNAc6S
# How it was run: as §1
# Gal4S(b1-4)GlcNAc = target: Gal4S(b1-4)GlcNAc
# How it was run: as §1
# Gal4S6S(b1-4)GlcNAc = target: Gal4S6S(b1-4)GlcNAc
# How it was run: as §1
# Gal6P(b1-4)GlcNAc = target: Gal6P(b1-4)GlcNAc
# How it was run: as §1
# Gal6S(b1-3)GlcNAc = target: Gal6S(b1-3)GlcNAc
# How it was run: as §1
# Gal6S(b1-3)GlcNAc6S = target: Gal6S(b1-3)GlcNAc6S
# How it was run: as §1
# Gal6S(b1-4)Glc = target: Gal6S(b1-4)Glc
# How it was run: as §1
# Gal6S(b1-4)Glc6S = target: Gal6S(b1-4)Glc6S
# How it was run: as §1
# Gal6S(b1-4)GlcNAc = target: Gal6S(b1-4)GlcNAc
# How it was run: as §1
# Gal6S(b1-4)GlcNAc6S = target: Gal6S(b1-4)GlcNAc6S
# How it was run: as §1
# GalNAc(a1-3)Gal = target: GalNAc(a1-3)Gal
# How it was run: as §1
# GalNAc(a1-3)GalNAc = target: GalNAc(a1-3)GalNAc
# How it was run: as §1
# [5] = target: GalNAc(a1-3)GalNAc(b1-3)Gal(a1-4)Gal(b1-4)Glc
# How it was run: as §1
# [6] = target: GalNAc(a1-3)GalNAc(b1-3)Gal(a1-4)Gal(b1-4)GlcNAc
# How it was run: as §1
# GalNAc(b1-3)Gal = target: GalNAc(b1-3)Gal
# How it was run: as §1
# [7] = target: GalNAc(b1-3)Gal(a1-4)Gal(b1-4)GlcNAc
# How it was run: as §1
# [8] = target: GalNAc(b1-3)Gal(a1-4)Gal(b1-4)GlcNAc(b1-3)Gal(b1-4)Glc
# How it was run: as §1
# [9] = target: GalNAc(b1-3)Gal(a1-6)Gal(b1-4)Glc
# How it was run: as §1
# GalNAc(b1-3)GalNAc = target: GalNAc(b1-3)GalNAc
# How it was run: as §1
# GalNAc(b1-3)GlcNAc = target: GalNAc(b1-3)GlcNAc
# How it was run: as §1
# GalNAc(b1-4)Gal(b1-4)Glc = target: GalNAc(b1-4)Gal(b1-4)Glc
# How it was run: as §1
# GalNAc(b1-4)GlcNAc = target: GalNAc(b1-4)GlcNAc
# How it was run: as §1
# [10] = target: GalNAc(b1-4)GlcNAc(b1-2)Man
# How it was run: as §1
# [11] = target: GalNAc(b1-4)GlcNAc(b1-2)Man(a1-3)[GalNAc(b1-4)GlcNAc(b1-2)Man(a1-6)]Man(b1-4)GlcNAc(b1-4)GlcNAc
# How it was run: as §1
# [12] = target: GalNAc(b1-4)GlcNAc(b1-3)GalNAc(b1-4)GlcNAc
# How it was run: as §1
# GalNAc(b1-4)GlcNAc6S = target: GalNAc(b1-4)GlcNAc6S
# How it was run: as §1
# GalNAc(b1-6)GalNAc = target: GalNAc(b1-6)GalNAc
# How it was run: as §1
# GalNAc3S(b1-4)GlcNAc = target: GalNAc3S(b1-4)GlcNAc
# How it was run: as §1
# GalNAc3S(b1-4)GlcNAc3S = target: GalNAc3S(b1-4)GlcNAc3S
# How it was run: as §1
# [13] = target: GalNAc3S(b1-4)[Fuc(a1-3)]GlcNAc
# How it was run: as §1
# GalNAc4S6S(b1-4)GlcNAc = target: GalNAc4S6S(b1-4)GlcNAc
# How it was run: as §1
# GalNAc6S(b1-4)GlcNAc = target: GalNAc6S(b1-4)GlcNAc
# How it was run: as §1
# Glc(a1-4)Glc = target: Glc(a1-4)Glc
# How it was run: as §1
# [14] = target: Glc(a1-4)Glc(a1-4)Glc(a1-4)Glc
# How it was run: as §1
# Glc(a1-6)Glc(a1-6)Glc = target: Glc(a1-6)Glc(a1-6)Glc
# How it was run: as §1
# [15] = target: Glc(a1-6)Glc(a1-6)Glc(a1-6)Glc
# How it was run: as §1
binder,measurement,setting,value
B1,glycan array binding signal (z-score),[1],-0.282
same,glycan array binding signal (z-score),Gal3S(b1-4)Glc,-0.321
same,glycan array binding signal (z-score),Gal3S(b1-4)Glc6S,-0.303
same,glycan array binding signal (z-score),Gal3S(b1-4)GlcNAc,-0.36
same,glycan array binding signal (z-score),[2],0.642
same,glycan array binding signal (z-score),[3],-0.179
same,glycan array binding signal (z-score),[4],-0.451
same,glycan array binding signal (z-score),Gal3S4S(b1-4)GlcNAc,-0.316
same,glycan array binding signal (z-score),Gal3S6S(b1-4)GlcNAc,-0.352
same,glycan array binding signal (z-score),Gal3S6S(b1-4)GlcNAc6S,-0.357
same,glycan array binding signal (z-score),Gal4S(b1-4)GlcNAc,-0.267
same,glycan array binding signal (z-score),Gal4S6S(b1-4)GlcNAc,-0.595
same,glycan array binding signal (z-score),Gal6P(b1-4)GlcNAc,-0.262
same,glycan array binding signal (z-score),Gal6S(b1-3)GlcNAc,-0.427
same,glycan array binding signal (z-score),Gal6S(b1-3)GlcNAc6S,-0.136
same,glycan array binding signal (z-score),Gal6S(b1-4)Glc,0.008
same,glycan array binding signal (z-score),Gal6S(b1-4)Glc6S,0.251
same,glycan array binding signal (z-score),Gal6S(b1-4)GlcNAc,1.21
same,glycan array binding signal (z-score),Gal6S(b1-4)GlcNAc6S,-0.33
same,glycan array binding signal (z-score),GalNAc(a1-3)Gal,1.36
same,glycan array binding signal (z-score),GalNAc(a1-3)GalNAc,-0.148
same,glycan array binding signal (z-score),[5],-0.122
same,glycan array binding signal (z-score),[6],-0.331
same,glycan array binding signal (z-score),GalNAc(b1-3)Gal,-0.347
same,glycan array binding signal (z-score),[7],-0.117
same,glycan array binding signal (z-score),[8],-0.438
same,glycan array binding signal (z-score),[9],-0.243
same,glycan array binding signal (z-score),GalNAc(b1-3)GalNAc,-0.223
same,glycan array binding signal (z-score),GalNAc(b1-3)GlcNAc,-0.598
same,glycan array binding signal (z-score),GalNAc(b1-4)Gal(b1-4)Glc,-0.269
same,glycan array binding signal (z-score),GalNAc(b1-4)GlcNAc,-0.341
same,glycan array binding signal (z-score),[10],-0.012
same,glycan array binding signal (z-score),[11],1.11
same,glycan array binding signal (z-score),[12],0.008
same,glycan array binding signal (z-score),GalNAc(b1-4)GlcNAc6S,-0.328
same,glycan array binding signal (z-score),GalNAc(b1-6)GalNAc,-0.453
same,glycan array binding signal (z-score),GalNAc3S(b1-4)GlcNAc,-0.302
same,glycan array binding signal (z-score),GalNAc3S(b1-4)GlcNAc3S,-0.227
same,glycan array binding signal (z-score),[13],-0.289
same,glycan array binding signal (z-score),GalNAc4S6S(b1-4)GlcNAc,-0.38
same,glycan array binding signal (z-score),GalNAc6S(b1-4)GlcNAc,-0.236
same,glycan array binding signal (z-score),Glc(a1-4)Glc,-0.295
same,glycan array binding signal (z-score),[14],-0.123
same,glycan array binding signal (z-score),Glc(a1-6)Glc(a1-6)Glc,-0.36
same,glycan array binding signal (z-score),[15],-0.282
